According to the supplement of paper PMC10037445:
The full ranking holds about 2,900 compounds; the median of “NF-kB SEAP reporter activity, fold change vs agonist alone” is about 0.99, and the highest 2% start at about 2.6. The list shows a part of the results.

Key:
RAW-Dual [1] = assay: NF-kB SEAP reporter activity, fold change vs agonist alone; cytotoxicity flag (confluency mask): not cytotoxic; higher = enhanced NF-kB activity
Method in brief: (§1)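 Cytotoxic wells were those whose IncuCyte confluency was below 70% of agonist controls in both mask sets. The cells were RAW-Dual macrophages at 50,000 cells/well in DMEM on 384-well plates, dosed with 50 nL of library stock by pin tool, stimulated with a PRR agonist 1 h later, and kept at 37 °C, 5% CO2 for 20 hours. IRF and NF-κB reporter activity, as fold change over agonist-alone wells, came from supernatant read by QuantiLuc luminescence and QuantiBlue absorbance, respectively.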

RAW-Dual [2] = assay: NF-kB SEAP reporter activity, fold change vs agonist alone; higher = enhanced NF-kB activity; conditions: library stock concentration (final ~1000-fold dilution): 10 mM, cytotoxicity flag (confluency mask): not cytotoxic
Method in brief: as §1

[3] = agonist: ODN 1826 (TLR9) 0.5 ug/mL
[4] = agonist: Pam2CSK4 (TLR2/6) 0.1 ug/mL
[5] = agonist: Pam3CSK4 (TLR2/1) 0.1 ug/mL

Compound: CC(C)=CCC/C(C)=C/CC/C(C)=C/CSc1ccccc1C(=O)O (library stock concentration (final ~1000-fold dilution): 10 mM)
- NF-kB SEAP reporter activity (RAW-Dual [1]; agonist: LPS (TLR4) 0.1 ug/mL): 0.724
- NF-kB SEAP reporter activity (RAW-Dual [1]; [3]): 0.671
- NF-kB SEAP reporter activity (RAW-Dual [1]; [4]): 0.914
- NF-kB SEAP reporter activity (RAW-Dual [1]; [5]): 0.68

Compound: CC(C)=CCC/C(C)=C/CC/C(C)=C/CSc1ccccc1C(=O)O
- NF-kB SEAP reporter activity (RAW-Dual [2]; agonist: Imiquimod (TLR7) […]): 0.904
- NF-kB SEAP reporter activity (RAW-Dual [2]; agonist: MPLA (TLR4) […]): 0.878

Compound: Br.CN(C)CCCC1(c2ccc(F)cc2)OCc2cc(C#N)ccc21 (configuration not stated) (library stock concentration (final ~1000-fold dilution): 10 mM)
- NF-kB SEAP reporter activity (RAW-Dual [1]; agonist: LPS (TLR4) 0.1 ug/mL): 1.15
- NF-kB SEAP reporter activity (RAW-Dual [1]; [3]): 0.889
- NF-kB SEAP reporter activity (RAW-Dual [1]; [4]): 0.786
- NF-kB SEAP reporter activity (RAW-Dual [1]; [5]): 0.857

Compound: Br.CN(C)CCCC1(c2ccc(F)cc2)OCc2cc(C#N)ccc21 (configuration not stated)
- NF-kB SEAP reporter activity (RAW-Dual [2]; agonist: MPLA (TLR4) […]): 1.01

Compound: O=C1C(O)=C(O)OC1C(O)CO (configuration not stated)
- NF-kB SEAP reporter activity (RAW-Dual [2]; agonist: Imiquimod (TLR7) […]): 0.771
- NF-kB SEAP reporter activity (RAW-Dual [2]; agonist: MPLA (TLR4) […]): 0.985

Compound: O=C1C(O)=C(O)OC1C(O)CO (configuration not stated) (library stock concentration (final ~1000-fold dilution): 10 mM)
- NF-kB SEAP reporter activity (RAW-Dual [1]; agonist: LPS (TLR4) 0.1 ug/mL): 1.19
- NF-kB SEAP reporter activity (RAW-Dual [1]; [3]): 1.12
- NF-kB SEAP reporter activity (RAW-Dual [1]; [4]): 1.02
- NF-kB SEAP reporter activity (RAW-Dual [1]; [5]): 1.12

Compound: COc1cc2ncnc(Oc3ccc(CC(=O)Nc4cnn(C(C)C)c4)cc3)c2cc1OC (library stock concentration (final ~1000-fold dilution): 10 mM)
- NF-kB SEAP reporter activity (RAW-Dual [1]; agonist: LPS (TLR4) 0.1 ug/mL): 1.02
- NF-kB SEAP reporter activity (RAW-Dual [1]; [3]): 0.813
- NF-kB SEAP reporter activity (RAW-Dual [1]; [4]): 0.81
- NF-kB SEAP reporter activity (RAW-Dual [1]; [5]): 0.722

Compound: COc1cc2ncnc(Oc3ccc(CC(=O)Nc4cnn(C(C)C)c4)cc3)c2cc1OC
- NF-kB SEAP reporter activity (RAW-Dual [2]; agonist: Imiquimod (TLR7) […]): 0.73
- NF-kB SEAP reporter activity (RAW-Dual [2]; agonist: MPLA (TLR4) […]): 0.796

Compound: CC(C)(C)/[N+]([O-])=C/c1ccc(S(=O)(=O)O)cc1S(=O)(=O)O (library stock concentration (final ~1000-fold dilution): 10 mM)
- NF-kB SEAP reporter activity (RAW-Dual [1]; agonist: LPS (TLR4) 0.1 ug/mL): 1.29
- NF-kB SEAP reporter activity (RAW-Dual [1]; [3]): 0.946
- NF-kB SEAP reporter activity (RAW-Dual [1]; [4]): 1.02
- NF-kB SEAP reporter activity (RAW-Dual [1]; [5]): 1.02

Compound: CC(C)(C)/[N+]([O-])=C/c1ccc(S(=O)(=O)O)cc1S(=O)(=O)O
- NF-kB SEAP reporter activity (RAW-Dual [2]; agonist: Imiquimod (TLR7) […]): 0.926
- NF-kB SEAP reporter activity (RAW-Dual [2]; agonist: MPLA (TLR4) […]): 0.997

Compound: C=CCCC(=O)O
- NF-kB SEAP reporter activity (RAW-Dual [2]; agonist: Imiquimod (TLR7) […]): 0.98
- NF-kB SEAP reporter activity (RAW-Dual [2]; agonist: MPLA (TLR4) […]): 1.01

Compound: C=CCCC(=O)O (library stock concentration (final ~1000-fold dilution): 10 mM)
- NF-kB SEAP reporter activity (RAW-Dual [1]; agonist: LPS (TLR4) 0.1 ug/mL): 0.914
- NF-kB SEAP reporter activity (RAW-Dual [1]; [3]): 0.921
- NF-kB SEAP reporter activity (RAW-Dual [1]; [4]): 1.05
- NF-kB SEAP reporter activity (RAW-Dual [1]; [5]): 0.892

Compound: COC(=O)NC(C(=O)N1CCCC1c1ncc(-c2ccc3c(c2)OC(c2ccccc2)n2c-3cc3cc(-c4cnc(C5CCCN5C(=O)C(NC(=O)OC)C(C)C)[nH]4)ccc32)[nH]1)C(C)C (configuration not stated)
- NF-kB SEAP reporter activity (RAW-Dual [2]; agonist: Imiquimod (TLR7) […]): 1.03
- NF-kB SEAP reporter activity (RAW-Dual [2]; agonist: MPLA (TLR4) […]): 0.99

Compound: COC(=O)NC(C(=O)N1CCCC1c1ncc(-c2ccc3c(c2)OC(c2ccccc2)n2c-3cc3cc(-c4cnc(C5CCCN5C(=O)C(NC(=O)OC)C(C)C)[nH]4)ccc32)[nH]1)C(C)C (configuration not stated) (library stock concentration (final ~1000-fold dilution): 10 mM)
- NF-kB SEAP reporter activity (RAW-Dual [1]; agonist: LPS (TLR4) 0.1 ug/mL): 1.44
- NF-kB SEAP reporter activity (RAW-Dual [1]; [3]): 0.946
- NF-kB SEAP reporter activity (RAW-Dual [1]; [4]): 0.849
- NF-kB SEAP reporter activity (RAW-Dual [1]; [5]): 0.671

Compound: COc1ncc(-c2ccc3nccc(-c4ccnnc4)c3c2)cc1NS(=O)(=O)c1ccc(F)cc1F (library stock concentration (final ~1000-fold dilution): 10 mM)
- NF-kB SEAP reporter activity (RAW-Dual [1]; agonist: LPS (TLR4) 0.1 ug/mL): 6.18
- NF-kB SEAP reporter activity (RAW-Dual [1]; [3]): 0.959
- NF-kB SEAP reporter activity (RAW-Dual [1]; [4]): 2.26
- NF-kB SEAP reporter activity (RAW-Dual [1]; [5]): 0.801

Compound: COc1ncc(-c2ccc3nccc(-c4ccnnc4)c3c2)cc1NS(=O)(=O)c1ccc(F)cc1F
- NF-kB SEAP reporter activity (RAW-Dual [2]; agonist: Imiquimod (TLR7) […]): 0.912
- NF-kB SEAP reporter activity (RAW-Dual [2]; agonist: MPLA (TLR4) […]): 0.957
